Reference: article PMC4336329 (PLoS ONE, 2015)
Out of some 310,000 compounds screened, about 2,200 (0.71%) showed an effect of 50% or more. The effect is printed as a negative number. The list shows a part of the results.

What follows are compounds tested against human ether-à-go-go-related gene (hERG) potassium channel (human, UniProt Q12809) (assay: primary screen, population patch clamp on CHO cells stably expressing hERG).
Chain of human ether-à-go-go-related gene (hERG) potassium channel (Q12809 whole entry, looked up): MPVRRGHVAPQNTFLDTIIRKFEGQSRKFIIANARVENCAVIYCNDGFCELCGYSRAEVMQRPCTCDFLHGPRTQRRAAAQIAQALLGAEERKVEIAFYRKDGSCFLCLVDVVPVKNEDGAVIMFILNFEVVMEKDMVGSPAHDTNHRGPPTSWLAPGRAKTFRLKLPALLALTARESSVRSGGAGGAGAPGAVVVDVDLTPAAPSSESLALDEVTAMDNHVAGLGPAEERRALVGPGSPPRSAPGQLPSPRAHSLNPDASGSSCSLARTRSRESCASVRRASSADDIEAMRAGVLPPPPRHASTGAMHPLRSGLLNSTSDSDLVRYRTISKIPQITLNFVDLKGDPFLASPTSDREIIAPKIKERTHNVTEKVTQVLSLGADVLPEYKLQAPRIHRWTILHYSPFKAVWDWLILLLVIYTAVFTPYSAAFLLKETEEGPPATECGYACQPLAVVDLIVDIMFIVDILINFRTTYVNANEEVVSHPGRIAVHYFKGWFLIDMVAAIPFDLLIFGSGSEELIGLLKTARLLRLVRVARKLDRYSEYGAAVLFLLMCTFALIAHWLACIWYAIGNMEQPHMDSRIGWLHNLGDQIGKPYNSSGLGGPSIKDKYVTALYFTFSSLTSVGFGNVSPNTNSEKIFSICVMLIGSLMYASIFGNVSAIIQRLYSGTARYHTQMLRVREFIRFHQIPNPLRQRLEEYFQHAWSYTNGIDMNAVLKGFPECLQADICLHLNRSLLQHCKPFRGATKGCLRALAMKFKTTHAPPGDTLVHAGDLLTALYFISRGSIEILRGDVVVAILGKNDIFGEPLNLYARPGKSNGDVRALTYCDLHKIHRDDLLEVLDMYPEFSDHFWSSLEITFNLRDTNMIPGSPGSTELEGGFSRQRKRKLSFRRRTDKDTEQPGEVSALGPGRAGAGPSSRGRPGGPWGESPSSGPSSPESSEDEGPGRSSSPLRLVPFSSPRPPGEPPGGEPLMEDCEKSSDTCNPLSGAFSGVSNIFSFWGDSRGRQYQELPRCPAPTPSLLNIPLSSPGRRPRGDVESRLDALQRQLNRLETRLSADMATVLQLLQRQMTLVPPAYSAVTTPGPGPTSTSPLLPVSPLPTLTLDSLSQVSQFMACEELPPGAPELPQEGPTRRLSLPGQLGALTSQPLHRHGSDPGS

Structure (SMILES)	hERG current change (%, negative = inhibition) at 1uM [%]
Cc1ccc(Oc2cc(C#N)c(C#N)cc2-n2nnc3ccccc32)cc1C	7.63
Cc1cc(NC(=O)CCl)on1	9.81
O=C(COc1ccc(Br)cc1)Nc1ccccc1N1CCCC1	16.8
COc1cccc(CN(C)C(=O)c2ccc3nccnc3c2)c1	4.64
COc1ccc(NC(=O)COC(=O)Cc2c[nH]c3ccccc23)cc1OC	12.6
O=C(CSc1nnc2c(n1)[nH]c1ccc(F)cc12)OCc1ccccc1	17
CCCc1cc(C(=O)N2CCN(S(=O)(=O)c3ccc(OC)c(OC)c3)CC2)cs1	-2.36
O=S(=O)(NCCOc1ccccc1Cl)c1ccc2oc3ccccc3c2c1	5.41
O=C(CSCSCC(=O)Nc1ccc2c(c1)OCO2)Nc1ccc2c(c1)OCO2	3.52
O=C(O)C(=O)O.c1ccc2cc(OCCCn3ccnc3)ccc2c1	6.01
O=[N+]([O-])c1ccc(N/N=C2\CC3CC=CC23)c([N+](=O)[O-])c1 (stereo not drawn)	-2.34
CN1CCN(Cc2c(C(=O)N/N=C/c3cccc(Br)c3)nnn2-c2nonc2N)CC1	-29.3
Cc1cc2nnc(SCC(=O)N3CCOCC3)n2c2ccccc12	6.27
O=C(NN1C(=O)C2C3C=CC(C4CC34)C2C1=O)c1ccc(Cl)cc1 (stereo not drawn)	9.69
O=C1CCC([N+](=O)[O-])C(c2ccc(F)c(Br)c2)N1 (stereo not drawn)	16.9
Cc1ccc(CNC(=O)c2c(C)cc(=O)oc2C)cc1	-2.82
CCOC(=O)C1CCCN(C(=O)c2ccc(Cl)cc2)C1 (stereo not drawn)	5.78
COc1cccc(/C=N/Nc2ccc(Cl)nn2)c1	13.2
Cc1[nH]c2ccccc2c1C(=O)CSc1nc2ccccc2c(=O)n1-c1ccccc1F	5.68
CC(/C=N/n1c(-c2n[nH]c3c2CCC3)n[nH]c1=S)=C\c1ccco1	21.9
CN(c1ccccc1)c1nccc(=O)[nH]1	13.9
O=C(NCCc1ccccc1)c1cnc2ccccc2n1	8.78
Nc1nnnn1NCc1cccc(OCc2ccccc2)c1	16.5

Structure (SMILES)	hERG current change (%, negative = inhibition) at 1uM [%]
Cc1ccc2c(CN3CCN(CCO)CC3)cc(=O)oc2c1C	0.189
CCN(CC)C(C)C(=O)Nc1c2c(cc3c1CCC3)CCC2.Cl (stereo not drawn)	8.92
O=C(COc1ccccc1Cl)OCC(=O)N1CCN(S(=O)(=O)c2ccccc2)CC1	7.23
CCOC(=O)COc1c(/C=N\OC)cc(Cl)cc1OC	5.63
COc1ccccc1C(O)P(=O)(OC1CCCCC1)OC1CCCCC1 (stereo not drawn)	3.38
COC(=O)c1ccc(C(=O)NC2CC(C)(C)Cc3c2cnn3-c2ccc(F)cc2)nc1 (stereo not drawn)	-0.769
O=C(c1cc(-c2ccc(Br)cc2)nc2ccccc12)N1CCN(c2ccccc2O)CC1	5.36
Cc1cc(N2CCCC2)ccc1NC(=O)COc1cccc(C(F)(F)F)c1	17.5
CC(C)N(Cc1nc(-c2ccc(Cl)cc2)no1)C(=O)CCC1CCCC1	4.93
O=C(C[n+]1cccc(Br)c1)c1cccs1.[Br-]	11.5
CCOC(=O)Cc1nnc(NC(=O)C23CC4CC(CC(C4)C2)C3)s1	5.96
CCOc1cccc(C(=O)Nc2ccccc2C(=O)N2CCN(C)CC2)c1	5.41
CCO[C@H]1OC(C(N)=O)=C[C@@H](c2ccc(Br)cc2)[C@@H]1CCCO	-7.37
Cc1nc2nc(-c3ccc(F)cc3)cn2nc1C	4.73
COc1cc(OC)cc(C(=O)N[C@H](C(=O)OCC(=O)Nc2ccc(C)cc2C)C(C)C)c1	-0.106
CCOc1ccc2c(c1)C(=NNC(=O)c1ccncc1)c1cc(OCC)ccc1-2	-0.661
Cc1cccc(C(=O)C2CCN(S(=O)(=O)c3ccc(C(=O)O)cc3)CC2)c1	5.21
O=C(NNC(=O)c1ccc(Br)cc1)c1ccncc1	13.1
O=C(NC1CCCCC1)C1CCN(C(=O)c2ccccc2Cl)CC1	17.1
O=C(CCl)NC(Cc1ccccc1)c1ccccc1 (stereo not drawn)	9.18
CN(C)C(CNC(=O)c1cccc(NS(=O)(=O)c2ccc(Br)cc2)c1)c1ccco1 (stereo not drawn)	-5.22
COC(=O)CCC(=O)OC1(C)C(=O)C=C2C=C(C3CC3)N(CCc3c[nH]c4ccccc34)C=C2C1=O (stereo not drawn)	10.8
COc1cccc(C2NC(=S)NC3=C2CCc2ccccc23)c1 (stereo not drawn)	3.56

Structure (SMILES)	hERG current change (%, negative = inhibition) at 1uM [%]
CCC1=NC(c2ccc(OC)c(OC)c2)N(O)C1(C)C (stereo not drawn)	5.15
CC(=O)c1csc(COc2ccccc2)n1	13.3
Cc1ccc(C(=O)NCc2ccc3c(c2)OCO3)c(C)c1	12.3
CC(=O)Oc1ccc(C(=O)NC(C)CCc2ccccc2)cc1 (stereo not drawn)	14
Cc1ccc(Cl)cc1NC(=O)CC1NC2CCCCC2NC1=O (stereo not drawn)	14.9
CC(C)c1ccccc1OCC(=O)Nc1ccc2[nH]ncc2c1	10.3
NS(=O)(=O)c1ccc(CCNC(=O)c2ccc(=O)[nH]c2)cc1	12.7
CN1CCN(C(=O)c2ccccc2Nc2ccc(SC(F)F)cc2)CC1.Cl	9.91
Cn1c(=O)c2c(SCC(=O)NCC3CCCO3)nc(-c3ccccc3Cl)nc2n(C)c1=O (stereo not drawn)	-6.21
CCc1c(C)[nH]n(CCC#N)c1=O	2.22
CCN(CC)CCOCCOc1cc(C)c(Cl)c(C)c1	-1.67
CCOc1cc(/C=N/Nc2nc(N3CCCCC3)nc(N3CCCCC3)n2)ccc1OC(=O)c1ccco1	17.3
COc1ccccc1OCC(O)Cn1nc(C)cc1C (stereo not drawn)	14.5
Cc1csc(NC(=O)C2CCCCN2S(=O)(=O)c2ccccc2)n1 (stereo not drawn)	7.88
O=C(C/C=N\OCc1c(Cl)cccc1Cl)Oc1ccc(Cl)cc1Cl	8.47
Cc1nc(N2CCCCC2)nc(N2CCCCC2)c1C=O	19.1
Cc1ccc(S(=O)(=O)N2CCN(C(=O)CCc3nc4ccccc4c(=O)[nH]3)CC2)c(C)c1	-2.92
CCOC(=O)C1CCCN(C(=O)Cn2nc(Cc3cccnc3)c3ccccc3c2=O)C1 (stereo not drawn)	11.1
COc1ccc(C2c3ccc(O)cc3Oc3ncn(CCCO)c(=N)c32)cc1OC (stereo not drawn)	7.81
CCOC(=O)c1cc(-c2ccc(/C=N\n3cnnc3)o2)ccc1Cl	-9.22
O=C(CCn1c(=O)c2ccccc2n(Cc2cc(=O)n3ccccc3n2)c1=O)NCc1ccco1	1.3
Cc1ccc(-c2nnc(-c3ccccc3)o2)cc1	14.6
CCc1cc(=O)oc2cc(OCC(=O)NCCCN3CCCC3=O)ccc12	7.58

Structure (SMILES)	hERG current change (%, negative = inhibition) at 1uM [%]
CSc1ccccc1C(=O)NCC(c1ccco1)N1CCCCC1 (stereo not drawn)	6.8
O=C(O)C1CCCCN1S(=O)(=O)c1cccc2nsnc12 (stereo not drawn)	7.5
Cc1cc(Cl)ccc1NC(=O)CCC(=O)N/N=C/c1cccnc1	5.63
CN1CCC(NC(=O)c2cc(-c3cccc(Br)c3)nc3ccccc23)CC1	-31.3
CCOc1ccc(CNS(=O)(=O)c2c(C(=O)N3CCCC3)c(C)n(C)c2C)cc1OC	6.44
CN(C)CC(C)(C)CNC(=S)Nc1ccc(S(=O)(=O)N2CCOCC2)cc1	5.77
COc1ccc(/C=C/C(=O)N2CCNC(=O)C2)c(OC)c1	19
O=C(N(c1ccccn1)c1ccccn1)C12CC3CC(CC(C3)C1)C2	0.429
COc1cccc(N2CCN(C(=O)CCC(=O)c3ccc(Cl)s3)CC2)c1	3.04
COC(=O)N/N=C\c1cc2c(cc1Br)OCO2	6.41
CCN1C(=O)/C(=C\N2CCN(c3cccc(Cl)c3)CC2)SC1=S	6.97
N#Cc1cc(-c2ccccc2)oc1/N=C/c1ccccc1O	-0.45
O=[N+]([O-])/C(C(Cl)=C(Cl)Cl)=C(/Sc1ccccc1)N1CCCCC1	10.4
CC(Oc1ccccc1)C(=O)Nc1ccc(NC(=O)c2ccccc2)cc1 (stereo not drawn)	9.77
CCOC(=O)CN1C(=O)C(=O)c2cc(C)ccc21	11.9
COc1ccc(-n2c(SCC(=O)NCC3CCCO3)nc3c([nH]c4ccccc43)c2=O)cc1OC (stereo not drawn)	15.9
CCN(CC)c1ccc(NC(=O)CSc2nc3nc(C)cc(C)c3c(=O)[nH]2)cc1	0.788
CCn1nc(NS(=O)(=O)c2ccc([N+](=O)[O-])cc2)c2cc3cc(C)ccc3nc21	9.86
CC(C)c1nc(CNC(=O)C2CCC(=O)N(CCc3cccc(F)c3)C2)cs1 (stereo not drawn)	7.72
CCOc1ccc(OCC)c(NC(=O)Nc2ccc3c(c2)N(C)C(=O)CS3)c1	5.78
Cc1noc(/C=C/c2ccccc2F)c1S(=O)(=O)N1CCC(C(=O)N2CCN(C)CC2)CC1	7.3
